Out of some 200,000 compounds screened, about 4,500 (2.2%) were called active. Inconclusive means that the source gave no clear call. Such entries were picked first, then a sample of the others. The call rests on the fitted dose curve; in most records, active means well fitted inhibition curve with a large enough effect; inconclusive means small, poorly fitted or top-dose-only effect, or effect the other way; inactive means flat fitted curve, though single readings scatter. Potencies of inconclusive entries are doubtful fits and often do not repeat.
biological target: Cruzipain (Trypanosoma cruzi) (UniProt P25779); assay: qHTS Assay for Promiscuous and Specific Inhibitors of Cruzain (without detergent); details: purified cruzain, Z-FR-AMC fluorescence, no detergent; further: nearly all actives have a fitted effect of over 40% in size;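 on max response, negative = inhibition: plate controls were enzyme without inhibitor for no effect and buffer without enzyme for full effect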
Method in brief: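 Purified cruzain at 1.5 nM, pre-incubated 15 min with compound at room temperature in 100 mM sodium acetate pH 5.5, 5 mM DTT, 0.00005% Triton X-100. Reaction started with 2 uM Z-FR-AMC; AMC fluorescence increase over 60 s gives rate.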
Potency means the concentration at half of the fitted maximal effect; tags describe the fitted curve by direction and shape.

UniProt P25779, sequence (P25779 whole entry, looked up): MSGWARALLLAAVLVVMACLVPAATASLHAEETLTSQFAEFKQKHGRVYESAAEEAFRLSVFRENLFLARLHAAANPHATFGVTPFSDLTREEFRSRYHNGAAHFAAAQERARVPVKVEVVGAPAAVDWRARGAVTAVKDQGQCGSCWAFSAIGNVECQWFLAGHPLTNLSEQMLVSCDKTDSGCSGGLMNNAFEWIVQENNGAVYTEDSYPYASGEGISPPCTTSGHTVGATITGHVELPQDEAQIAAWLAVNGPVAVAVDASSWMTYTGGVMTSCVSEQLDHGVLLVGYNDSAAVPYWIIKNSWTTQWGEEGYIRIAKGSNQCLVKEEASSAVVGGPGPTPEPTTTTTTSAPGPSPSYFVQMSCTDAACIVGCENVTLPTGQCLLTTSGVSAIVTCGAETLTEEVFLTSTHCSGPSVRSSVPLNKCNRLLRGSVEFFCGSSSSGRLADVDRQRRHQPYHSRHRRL

| SMILES | Potency | max response, negative = inhibition |
| --- | --- | --- |
| CCCCCCCNS(=O)(=O)c1cccc2c(Cl)cccc12 | inconclusive: 39.8 µM [inhibitor, single point] |  |
| O=[N+]([O-])c1cccc(-c2ccc(/C=N/NC(=S)Nc3ccccc3)o2)c1 | inconclusive: 39.8 µM [inhibitor, single point] |  |
| CCOC(=O)c1c(-c2ccc(C)c(C)c2)csc1NC(=O)C1CC=CCC1C(=O)O (stereo not given) | inconclusive: 39.8 µM [activator, single point] |  |
| CCOC(=O)c1sc(NC(=O)CSc2nc(-c3ccco3)cc(C(F)(F)F)n2)c(C(=O)OC)c1C |  | inactive: -8.62% |
| Cc1nn(-c2ccc(F)cc2)c(Cl)c1/C=C(\CCC(=O)O)c1nc2ccccc2s1 | inconclusive: 12.6 µM [activator, partial curve] |  |
| CCOC(=O)c1cc(-c2ccc(F)cc2)n(CCC(=O)NC2CCCCC2)c1C | inconclusive: 25.1 µM [activator, single point] |  |
| O=C(CCN1CCC(c2ccccc2)C1)c1cccs1 (stereo not given) | inconclusive: 1.26 µM [inhibitor, full curve, poor fit] |  |
| Nc1c(C(=O)NCc2ccccc2)nnn1Cc1cccc(Br)c1 | inconclusive: 31.6 µM [inhibitor, single point] |  |
| Cc1ccc(Sc2cc(C(F)(F)F)nc(N(C)C)n2)cc1 | inconclusive: 39.8 µM [inhibitor, single point] |  |
| Cc1cc(C)c(NC(=O)C(C)n2nnc3sc(-c4ccccc4)cc3c2=O)c(C)c1 (stereo not given) | inconclusive: 39.8 µM [activator, partial curve, poor fit] |  |
| CCOC(=O)C1CCN(C(c2ccc(F)cc2)c2sc3nc(-c4ccco4)nn3c2O)CC1 (stereo not given) | inconclusive: 39.8 µM [activator, single point] |  |
| COc1cccc(CNC(=O)c2nnn(CC(=O)Nc3ccc(C)c(C)c3)c2N)c1 | inconclusive: 39.8 µM [inhibitor, single point] |  |
| Nc1nc(Nc2ccccc2)nc2ccccc12 | active: 25.1 µM |  |
| CCCCN(CCCC)C(=O)CSc1nnc(-c2cc(OC)c(OC)c(OC)c2)o1 | inconclusive: 20 µM [activator, single point] |  |
| Cc1cc(C)cc(Nc2cc(C(=O)NCc3ccccc3)c3ccccc3n2)c1 |  | inactive: 4.48% |
| O=c1[nH]c(N/N=C/c2ccccc2Br)nnc1-c1ccccc1 | active: 12.6 µM |  |
| COc1ccc(NCc2nnc3n2CCCCC3)c(OC)c1 |  | inactive: -9.86% |
| O=S(=O)(N/N=C1/CC(c2ccccc2)Oc2ccccc21)c1ccc(Br)cc1 (stereo not given) | inconclusive: 39.8 µM [inhibitor, partial curve, poor fit] |  |
| CCN(CC)S(=O)(=O)c1ccc(C(=O)NCCSc2c(-c3ccc(OC)cc3)[nH]c3ccccc23)cc1 |  | inactive: -14.1% |
| Cn1c(C(=O)NC2CCCCCC2)cc2c(=O)n(C)c3ccccc3c21 | inconclusive: 25.1 µM [activator, single point] |  |
| Cc1ccccc1Cn1cc(NC(=O)CSc2nc3c(c(C(F)(F)F)n2)CCc2ccccc2-3)cn1 | inconclusive: 39.8 µM [inhibitor, single point] |  |
| COc1cc(Cl)c(C)cc1NC(=O)CNC(=O)Cn1cnc2ccccc2c1=O | inconclusive: 31.6 µM [activator, single point] |  |

| SMILES | Potency | max response, negative = inhibition |
| --- | --- | --- |
| COc1ccc(-c2cc(C(F)(F)F)n3nc(C(=O)N4CCCCC4)cc3n2)cc1OC | inconclusive: 31.6 µM [activator, single point] |  |
| O=[N+]([O-])c1cc(-c2nc(-c3ccncc3)no2)ccc1NCc1ccccc1 |  | inactive: 9.19% |
| Cc1cccnc1NC(=O)Nc1cccs1 |  | inactive: -1.88% |
| O=C(O)c1cccc(N/N=C/c2cc(Br)cc(Br)c2O)c1 | inconclusive: 39.8 µM [activator, single point] |  |
| COc1ccc2c(c1)C(=O)[C@@H](OC(=O)NCc1ccc3c(c1)OCO3)[C@H](c1ccc(OC)c(Br)c1)O2 | inconclusive: 25.1 µM [inhibitor, single point] |  |
| O=C(NCc1ccco1)c1ccc(Cn2c(=O)c3sccc3n(Cc3cccc(F)c3)c2=O)cc1 | active: 25.1 µM |  |
| CC(=O)Nc1cccc(NC(=O)CSc2cn(CC(=O)N3CCCCCC3)c3ccccc23)c1 |  | inactive: -12.8% |
| Cc1cc(C)c(OCC(=O)Nc2cccc(O)c2)cc1C | inconclusive: 31.6 µM [inhibitor, single point] |  |
| COc1ccc(C(=O)c2sc3nc(C)cc(-c4cccs4)c3c2N)cc1 | inconclusive: 31.6 µM [inhibitor, single point] |  |
| COCCn1c(C)cc(C(=O)CSc2nc3ccccc3s2)c1C | inconclusive: 39.8 µM [activator, single point] |  |
| Cc1ccccc1-c1ccc2ncnc(N(C)Cc3ccco3)c2c1 |  | inactive: 2.89% |
| CCCCc1c(C)nn(-c2nnc3c4ccccc4n(C)c3n2)c1C | inconclusive: 25.1 µM [activator, single point] |  |
| CCOC(=O)N1CCN(C(=O)CN(c2cc(Cl)ccc2OC)S(=O)(=O)c2ccccc2)CC1 | inconclusive: 31.6 µM [activator, single point] |  |
| N#CC1=C2SCN(Cc3ccco3)CN2C(=O)CC1c1c(F)cccc1Cl (stereo not given) | active: 20 µM |  |
| Cc1ccn2c(Nc3ccc4c(c3)OCO4)c(-c3ccco3)nc2c1 | inconclusive: 39.8 µM [inhibitor, single point] |  |
| CCOC(=O)C1=C(Cc2ccc(Cl)cc2)C(=O)c2ccccc2C1=O | active: 15.8 µM |  |
| Cc1cccc(CS(=O)(=O)CC2Nc3ccc(C(=O)NCc4ccccc4Cl)cc3NC2=O)c1 (stereo not given) | inconclusive: 25.1 µM [inhibitor, single point] |  |
| O=C(CSc1nc2ccccc2[nH]1)c1ccc2c(c1)OCO2 | active: 2.51 µM |  |
| COC(=O)c1cc(NC(=O)Cn2ncc3c2-c2ccccc2OC3)cc(C(=O)OC)c1 | inconclusive: 39.8 µM [activator, single point] |  |
| O=C(NCCc1c[nH]c2ccccc12)Nc1ccccc1C(F)(F)F |  | inactive: 21.2% |
| CCOCCCNC(=O)c1c(NC(=O)c2cc(=O)c3cc(C)c(C)cc3o2)sc2c1CCC2 |  | inactive: -4.9% |
| CCOC(=O)c1ccc(N2C(=O)c3[nH]nc(-c4ccc(OC)cc4)c3C2c2ccc(C)cc2)cc1 (stereo not given) | active: 25.1 µM |  |

| SMILES | Potency | max response, negative = inhibition |
| --- | --- | --- |
| CCc1cccc(C)c1NC(=O)Nc1csc2c1CCCC2 |  | inactive: -2.06% |
| NCCC[C@@H](CC(=O)N[C@@H]1CCCC[C@H]1C(=O)N[C@H](CC(=O)N[C@@H](CCC(=O)O)CC(=O)O)Cc1ccccc1)NC(=O)C[C@H](CO)NC(=O)[C@@H]1CNCC[C@H]1N |  | inactive: 14.9% |
| COc1cccc(CSc2nnc(CSc3nc4nc(C)cc(C)n4n3)s2)c1 | inconclusive: 39.8 µM [activator, single point] |  |
| Cc1cnc(CNc2cc(-c3ccccc3C)ncn2)cn1 |  | inactive: 1.84% |
| COc1cccc2cc(-c3nc(Cl)c4c5c(sc4n3)CC(C)CC5)c(=O)oc12 (stereo not given) |  | inactive: -8.92% |
| COC(=O)c1cccc(C23CC4(C2)[C@H](CN(Cc2ccc(-c5ccccc5)cc2)[C@@H]4c2ccccc2)C3c2ccc(Cl)nc2)c1 (stereo not given in full) | active: 7.94 µM |  |
| CCOn1c(=O)c(-c2cccc([N+](=O)[O-])c2)[n+]([O-])c2ccccc21 |  | inactive: -12.1% |
| COCC(=O)N1CCC2(CC1)CN(c1cccc(-c3ccccc3)c1)C2 | inconclusive: 39.8 µM [activator, single point] |  |
| CCn1cc(C(=O)NCCc2ccc(OC)c(OC)c2)c(=O)c2cc(S(=O)(=O)N3CCc4ccccc4C3)ccc21 | inconclusive: 7.94 µM [activator, full curve] |  |
| COc1cccc(CNC(=O)CSc2ncc(S(=O)(=O)c3ccc(C)c(Cl)c3)c(=O)[nH]2)c1 | inconclusive: 31.6 µM [activator, single point] |  |
| COc1ccc2c(c1)c(CC(=O)Nc1ccccc1OC)c(C)n2C(=O)c1ccc(Cl)cc1 | active: 15.8 µM |  |
| N/C(=N\OC(=O)c1ccc(Cl)cc1)c1ccc(Cl)cc1 | inconclusive: 39.8 µM [inhibitor, single point] |  |
| Cc1ccc(C)c(CN2C(=O)c3ccccc3Sc3ccc(C(=O)NC4CCCC4)cc32)c1 |  | inactive: -5.11% |
| COc1ncc2nc(CCc3ccccc3)c(=O)n(C3CC3)c2n1 |  | inactive: 3.36% |
| Cc1ccc(C(C(=O)NC2CCCC2)N(Cc2ccco2)C(=O)CCC(=O)Nc2cc(C)on2)cc1 (stereo not given) | inconclusive: 0.158 µM [activator, single point] |  |
| O=C(Cc1ccccc1)Nc1c(C(=O)N2CCCCCC2)cnn1-c1ccccc1 | inconclusive: 0.158 µM [activator, full curve, poor fit] |  |
| CCOC(=O)c1ccc(N=C2C(=S)N(c3ccc(C(=O)OCC)cc3)C(=N)N2/N=C/c2ccccc2)cc1 | active: 12.6 µM |  |
| O=[N+]([O-])c1cccc(-c2nc(-c3cccs3)c(-c3cccs3)[nH]2)c1 | inconclusive: 31.6 µM [inhibitor, single point] |  |
| CCOC(=O)c1ccc(OCC2c3cc(OC)c(OC)cc3CCN2C(=O)Cc2ccc(OC)c(OC)c2)cc1 (stereo not given) | inconclusive: 31.6 µM [activator, single point] |  |
| O=C1CC(N2CCC(c3nc4ccccc4o3)CC2)C(=O)N1c1cc(Cl)cc(Cl)c1 (stereo not given) | inconclusive: 25.1 µM [activator, partial curve] |  |
| O=C(/C=C/c1ccc2ccccc2c1)c1ccoc1 | active: 20 µM |  |
